According to patent US20170114151A1 (published 2017):

Target: Human FcRn (human, UniProt P55899 part only; P61769 part only)
Assay: BIAcore equilibrium binding

- Kd: 930 nM
B1: biMab-EI (PaniX/Dalo) (bispecific antibody)
heavy: QVQLQESGPGLVKPSETLSLTCTVSGGSVSSGDYYWTWIRQSPGKGLEWIGHIYYSGNTNYNPSLKSRLTISIDTSKTQFSLKLSSVTAADTAIYYCVRDRVTGAFDIWGQGTMVTVSSASTKGPSVFPLAPSSKSTSGGTAALGCLVKDYFPEPVTVSWNSGALTSGVHTFPAVLQSSGLYSLSSVVTVPSSSLGTQTYICNVNHKPSNTKVDKRVEPKSCGKTGGGGSGGGGSDIVMTQSPLSLPVTPGEPASISCRSSQSIVHSNGNTYLQWYLQKPGQSPQLLIYKVSNRLYGVPDRFSGSGSGTDFTLKISRVEAEDVGVYYCFQGSHVPWTFGCGTKVEIKGGGGSGGGGSGGGGSGGGGSQVQLQESGPGLVKPSETLSLTCTVSGYSITGGYLWNWIRQPPGKCLEWIGYISYDGTNNYKPSLKDRVTISRDTSKNQFSLKLSSVTAADTAVYYCARYGRVFFDYWGQGTLVTVSSGGGGSGGGGS[left out - human IgG1 Fc]
light: DIQMTQSPSSLSASVGDRVTITCQASQDISNYLNWYQQKPGKAPKLLIYDASNLETGVPSRFSGSGSGTDFTFTISSLQPEDIATYFCQHFDHLPLAFGGGTKVEIKRTVAAPSVFIFPPSDEQLKSGTASVVCLLNNFYPREAKVQWKVDNALQSGNSQESVTEQDSKDSTYSLSSTLTLSKADYEKHKVYACEVTHQGLSSPVTKSFNRGEC
